# The source gives no read counts; variants with many changes may rest on few reads.
# B1: CPEB3 Ribozyme (parent)
# chain: UAACAGGGGGCCACAGCAGAAGCGUUCACGUCGCAGCCCCUGUCAGAUUCUGGUGAAUCUGCGAAUUCUGCUGUAUAUCUC
# Variants of: B1
# Assay: self-cleavage, relative activity (ratio to wild type); higher = more cleavage; in vitro, sequencing
# Method in brief: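 Relative activity was defined as the cleaved/total read fraction for a variant divided by the same fraction for the unmutated ribozyme. CPEB3 self-cleaving ribozyme libraries were made by rounds of error-prone PCR, barcoded, and transcribed in vitro with T7 RNA polymerase for 5 hours at 37°C, and cleavage ran through transcription plus a 15 min DNase I step before EDTA. Illumina sequencing of template-switched reverse transcripts gave the reads, and DNA sequencing mapped the barcodes. Averages come from three batches, using variants with at least 5 reads.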
row,Variant,self-cleavage
1,UGACAGGGGGCCACAGCAGGAGCGUUCACGUCGCAGCCCCUGUCAGAUUCAGGUGAAUCUGCGAAUUCAGCUGUAUAUCUC,0.48
2,UGACAGGGGGCCACAGCAGUAGCGUUCACGUCGCAGCCCCUGUCAGAUUCUGGUGAUUCUACGUAUUCUGCUGUAUAUCUC,0.12
3,UGACAGGGGGCCACAGCAGUAGCGUUCACGUCGCAGCCCCUGUCAGAUUCUGGUGAACCUGCGAAUUCUGCUGUAUAUCUC,0.1
4,UGACAGGGGGCCACAGCAGACGCGUUCACGUCGCAGCCCCUGUCAGAUUCUGGUGAAUCUGCGAAUUCUGCCGUAUAUCUC,0.14
5,UGACAGGGGGCCACAGCAGAGGCGUUCGCGUCGCAGCCCCUGUCAGAUUCUGGUGAAUCUGCGAAUUCUGCUGUAUAUCUC,0.53
6,UGACAGGGGGCCACAGCAGAGGCGUGCACGUCGCAGCCCCUGUCGGAUUCUGGUGUAUCUGCGAAUUCUGCUGCAUAUCUC,0.07
7,UGACAGGGGGCCACAGCAGAGGCGUUCACGCCGCAGCCCCUGUCUGAUUCUGGUGAAUCUGCGAAUUCCGCUGUAUAUCUC,0.34
8,UGACAGGGGGCCACAGCAGAGGCGUUCACGUCGCAGCCCCUGCCAGAUUCUGGUGAAUCUGCGAAUUCUGCUGUAUAUCUC,0.49
9,UGACAGGGGGCCACAGCAGAUGCGUUCACGUCGCAGCCCCUGUCAGAUUCCGGUGGAUCUGCGAAUUCUGCUGUAUAUCUC,0.52
10,UGACAGGGGGCCACAGCAGAAGCGUUCCCGUCGCAGCCCCUGUCAGAUUCUGGUGAACCCGCGAAUUCUGCUGUAUAUCUC,0.31
11,UGACAGGGGGCCACAGCAGAAGCGUUCGCGUCGCAGCCCCUGUCGGAUUCUGGUGAAUCUGCGAAUCCUGCUGUAUAUCUC,0.3
12,UGACAGGGGGCCACAGCAGAAGCGUUCGCGUCGCAGCCCCUGUCAGAUUCUGGUGUAUCUGCGAAUUCUGCUGUGUAUCUC,0.1
13,UGACAGGGGGCCACAGCAGAAGCGUUCGCGUCGCAGCCCCUGUCAGAUUCUGGUGAAUCUGCGAGUUCUGCUGUAUAUCUC,0.15
14,UGACAGGGGGCCACAGCAGAAGCGUUCGGGUCGCAGCCCCUGUCAGAUUCUGGUGAAUCUGCGAAUUCUGCAGUAUAUCUC,0.22
15,UGACAGGGGGCCACAGCAGAAGCGUUCGCGUCGCAGUCCCUGUCAGAUUCUGGUGGGUCUGCGAAUUCUGCCGUAUAUCUC,0.16
16,UGACAGGGGGCCACAGCAGAAGCGUUCGCGUCGCAGCCCCUGGCAGAUUCUGGUGAAUCUGCGAAUUCUGCUGUAUAUCUC,0.33
17,UGACAGGGGGCCACAGCAGAAGCGUUCGCGUCGCAGCCCCUGUCAGAUUCUGGUGAAUCUGCGAAUUCCGCUGUAUAUCUC,0.38
18,UGACAGGGGGCCACAGCAGAAGCGUUCGCGUCGCAGCCCCUGUCAGAUUCUGGUGAAUCUGCGAAUUCUGCUGUAUACCUC,0.49
19,UGACAGGGGGCCACAGCAGAAGCGUUCUCGUAGCAGCCCCUGUCAGAUUCAGGUGAAUCUGCGAAUUCUGUUGUAUAUCUC,0.19
20,UGACAGGGGGCCACAGCAGAAGCGUUCUCGUCGCAGCCCAUGCCAGAUUCUGGUGAAUCUGCGAAUUCUGCAGUAUAUCUC,0.09
21,UGACAGGGGGCCACAGCAGAAGCGUUCUCGUCGCAGCCCCAGUCAGAUUCUGGCGAAUCUGCGAAUUCUGCUGUAUAUCUC,0.08
22,UGACAGGGGGCCACAGCAGAAGCGUUCACGUCGCCGCCCCUGUCUAAUUCUGGUGAAUCUGCGAAUUCUGCCGUAUAUCUC,0.09
23,UGACAGGGGGCCACAGCAGAAGCGUUCACGUCGCGGCCCCUGUCUGAUUCUGGAGAAUCUGCGAAUUCUGCUGAAUAUCUC,1.11

row,Variant,self-cleavage
1,UGACAGGGGGCCACAGCAGAAGCGUUCACGUCGCGGCCCCUAUCAGAUUCUGGUGAAUCAGCGCAUUCUGCGGUAUAUCUC,0.13
2,UGACAGGGGGCCACAGCAGAAGCGUUCACGUCGCGGCCCCCGUCAGUUUCUGGUGAAUCUGCGAAUUCUGAAGUAUAUCUC,0.13
3,UGACAGGGGGCCACAGCAGAAGCGUUCACGUCGCGGCCCCUGUCAGAUUCAGGUGAAUCUGCGAAUUCUGCUGUUUAUCCC,1.28
4,UGACAGGGGGCCACAGCAGAAGCGUUCACGUCGCGGCCCCUGUCAGAUUCUGGUGAAUCUGCGAAUCCUGCUGUAUAUCUC,0.39
5,UGACAGGGGGCCACAGCAGAAGCGUUCACGUCGCAGCCCCUGUCUGAUUCUGGUGAAUCUGCGAGUUCUGCUGUAUAUCUC,0.1
6,UGACAGGGGGCCACAGCAGAAGCGUUCACGUCGCAGCCCCUGUCUGAUUCUGGUGAAUCUGCGAGUUCUGGUGUAUAUACC,0.1
7,UGACAGGGGGCCACAGCAGAAGCGUUCACGUCGCAGCCCCUGUCUGAUUCUGGUGAAUCUGCAAAUUCUGCUGUAUAUCUU,0.33
8,UGACAGGGGGCCACAGCAGAAGCGUUCACGUCGCAGCCCCUGUCAGCUUCUGGUGGAUCCGCGAAUUCUGCUGUAUAUCUC,0.25
9,UGACAGGGGGCCACAGCAGAAGCGUUCACGUCGCAGCCCCUGUCAGGUUCUGGCGAAUCUGCGAAUUCUGCUGUAUGUCUC,0.41
10,UGACAGGGGGCCACAGCAGAAGCGUUCACGUCGCAGCCCCUGUCAGAUUCUGGUGGAUCUGCGAAGUCUGCUGUAUAUCUC,0.23
11,UGACAGGGGGCCACAGCAGAAGCGUUCACGUCGCAGCCCCUGUCAGAUUCUGGUGGAUCUGCGAAUCCUGCUGUAUAUCUC,0.11
12,UGACAGGGGGCCACAGCAGAAGCGUUCACGUCGCAGCCCCUGUCAGAUUCUGGUGAAUCUGCGGAUUCUGCUGUGUAUCUC,0.48
13,UGACAGGGGGCCACAGCAGAAGCGUUCACGUCGCAGCCCCUGUCAGAUUCUGGUGAAUCUGCGGAUUCUGGCGUAUAUCUC,0.09
14,UGACAGGGGGCCACAGCAGAAGCGUUCACGUCGCAGCCCCUGUCAGAUUCUGGUGAAUCUGCGGACUCUGCUGCGUAUCUC,0.2
15,UGACAGGGGGCCACAGCAGAAGCGUUCACGUCGCAGCCCCUGUCAGAUUCUGGUGAAUCUGCGUAUUCUGAUGAAUAUCUC,0.13
16,UGACAGGGGGCCACAGCAGAAGCGUUCACGUCGCAGCCCCUGUCAGAUUCUGGUGAAUCUGCGUACUCUGCUGUAUAACUC,0.21
17,UGACAGGGGGCCACAGCAGAAGCGUUCACGUCGCAGCCCCUGUCAGAUUCUGGUGAAUCUGCGAGCUCUGCAGUAUACCAC,0.04
18,UGACAGGGGGCCACAGCAGAAGCGUUCACGUCGCAGCCCCUGUCAGAUUCUGGUGAAUCUGCGAGUCCUGCUGUAUAUCUC,0.29
19,UGACAGGGGGCCACAGCAGAAGCGUUCACGUCGCAGCCCCUGUCAGAUUCUGGUGAAUCUGCGAGUUCUGCUGCAUAUCUC,0.31
20,UGACAGGGGGCCACAGCAGAAGCGUUCACGUCGCAGCCCCUGUCAGAUUCUGGUGAAUCUGCGAGUUCUGCUGUAAAUCAC,0.25
21,UGACAGGGGGCCACAGCAGAAGCGUUCACGUCGCAGCCCCUGUCAGAUUCUGGUGAAUCUGCGAAUUCUGCUGUGUAUCCC,0.48
22,UGAUAGGGGGCCACAGCAGAAGCGUUCACGUCGCUGCCCCUGUCAGAUUCUGGUGAAUCCGCGAAUUCUGCUGUAUAUCUC,0.21
23,UGAUAGGGGGCCACAGCAGAAGCGUUCACGUCGCAGCCCCUGUCAGAUUCUGGUAACCCUGCGAAUUCUGCUGUAUAUCUC,0.11

row,Variant,self-cleavage
1,UGAUAGGGGGCCACAGCAGAAGCGAUCACGUCGCAGCCCCUGUCAGGUUCAGGUGAAUCCGCGAAUUCUGCUGUAUGUCUC,0.09
2,UGACAGGGGGACACAGCAGAAGCGUUCACGUCGCAGCCCCUGUCAGAUUCUGGUGGAUCUGCGAAUUCUGCUGUAUAACUC,0.08
3,UGACAGGGGGGCACAGCGGAAGCGCUCACGUCGCAGCCCCUGUCAGAUUCUGGUGAAUCUGCGAAUUCUGCUGUAAAUCCC,0.07
4,UGACAGGGGGGCACAGCAGAAGCGUACACGUCGCAGCCCCUGUCAGAUUCUGGUGAAUCUGCGAAUUCUGCAGUACAUCUC,0.08
5,UGACAGGGGGGCACAGCAGAAGCGUUCACGUCGCAGCCCCUGCCAGAUUCUGGUGAAUCUGAGAAUUCUGCUGUAUAUCUC,0.09
6,UGACAGGGGGUUACAGCAGAAGCGUUCACGUCGCAGCCCCUGUCAGAUUCUGGCGGAUCUGCGGAUUCUGCUGUAUAUCUC,0.06
7,UGACAGGGGGCAACAGCAGAAGCGUUCACGUCGCAGCCCCUGUCAGAUUCAGGCGUAUCUGCGAAUUCUGCUGUAUAUCUC,0.24
8,UGACAGGGGGCUACAGCAGAAGCGUUCACGUCGCAAACCCAGUCAGAUUCUGGCGAAUCUGCGAAUUCUGCUGUAUAUCUC,0.21
9,UGACAGGGGGCUACAGCAGAAGCGUUCACGACGCAGCCCCUGUCAGAUUCUGGUGAAUCUGCGAACUCUGCUGCUUAUCCC,0.25
10,UGACAGGGGGCUACAGCAGAAGCGUUCACGUCGCAGCCCCUGUCAGAUUCUGGUGAAUCUGCGAAUUCUGCAGUAUAUCUC,0.61
11,UGACAGGGGGCCAAAGCGGAAGCGUUCACGUCGCAGCCCCUGUCAGAUUCUGGCGUAUCUGCGAAUCCUGCUGUAUAUCUC,0.12
12,UGACAGGGGGCCACAGUAGUAGCGUUCGCGUCGCAGCCCCUGUCGGAUUCCGGUGAAUCAGCGAAUUCUGCUGUAUAUCUC,0.18
13,UGACAGGGGGCCACAGUAGAAGCGUCCACGUCGCAGCCCCUGUCAGAUUCUGGUGAAUCUGCGAAUUCUGCCGUAUACCUC,0.42
14,UGACAGGGGGCCACAGUAGAAGCGUUCACGUCGCAGCCCCGGUCAGAUUCUGGUGAAUCUGCGAAUUCUGCUGUAUACCUC,0.09
15,UGACAGGGGGCCACAGCAGAAGAGUCCUCGUCGCUGCCCCUGUCAGAUUCUGGCGAAUCUGCGAAUUCUGCUGUAUAUCUC,0.05
16,UGACAGGGGGCCACAGCAGAAGUGUUCCCGUCGCAGCCCCCGUCAGAUUCUGGUGAAUCUGCGAAUUAUGCUGUAUAUCUC,0.23
17,UGACAGGGGGCCACAGCAGAAGUGAUCACGUCGCAGCCCCUGUCAGAUUCAGGUGAAUCUGCGAAUUCUGCUGUAUAUCUC,0.24
18,UGACAGGGGGCCACAGCAGAAGUGUCCACGUCGCAGCCCCUGUCAGAUUCUGGUGAAUCUGCGAAUUCUGCCGUAUAUCUC,0.12
19,UGACAGGGGGCCACAGCAGAAGCGUUCACGUUGCAGCCCCUGUCAGAUUCUGGUGAAUCUGCGAAUUCUGCUGUAUAUCGC,0.37
20,UGACAGGGGGCCACAGCAGAAGCGUUCACGUCGAUGCCCCUGUCAGAUUCUGGUGAAUCUGCGAAUUCUGCUGUAUAUCUC,0.25
21,UGACAGGGGGCCACAGCAGAAGCGUUCACGUCGCAGACCCAGUCAGAUUCUGGUGUAUCUGCGAAUUCUGCUGUAUAUCUC,0.28
22,UGACAGGGGGCCACAGCAGAAGCGUUCACGUCGCAGACCCUGCCCGAUUCCGGUGAAUCUGCGAAUUCUGCUGUAUAUCUC,0.07

# Source: the RNAGym collection of RNA variant scans (doi:10.1093/nar/gkz1192)
